The list shows a part of the results.
How the values were obtained:
Assay in all cases: glycan array binding signal (z-score within array); higher = stronger binding
Conditions in all cases: glycan notation: IUPAC condensed, linker removed
[1] = target: Fuc(a1-2)Gal6S(b1-3)GlcNAc
Outline: (§1)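 The binding signal is a Z-score computed within each array. Data were drawn from 3228 arrays in the Consortium for Functional Glycomics database, restricted to those with a known protein sequence. Scores were averaged over arrays of the same protein sequence at different concentrations or buffers, and over linkers, and negative values can be taken as non-binding.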

[2] = target: Fuc(a1-2)Gal6S(b1-3)GlcNAc6S
Outline: as §1

[3] = target: Fuc(a1-2)Gal6S(b1-4)Glc
Outline: as §1

[4] = target: Fuc(a1-2)Gal6S(b1-4)Glc6S
Outline: as §1

[5] = target: Fuc(a1-2)[Gal(a1-3)]Gal
Outline: as §1

[6] = target: Fuc(a1-2)[Gal(a1-3)]Gal(b1-3)GalNAc
Outline: as §1

[7] = target: Fuc(a1-2)[Gal(a1-3)]Gal(b1-3)GalNAc(b1-3)Gal(a1-4)Gal(b1-4)Glc
Outline: as §1

[8] = target: Fuc(a1-2)[Gal(a1-3)]Gal(b1-3)GlcNAc
Outline: as §1

[9] = target: Fuc(a1-2)[Gal(a1-3)]Gal(b1-3)GlcNAc(b1-2)Man(a1-3)[Fuc(a1-2)[Gal(a1-3)]Gal(b1-3)GlcNAc(b1-2)Man(a1-6)]Man(b1-4)GlcNAc(b1-4)GlcNAc
Outline: as §1

[10] = target: Fuc(a1-2)[Gal(a1-3)]Gal(b1-3)GlcNAc(b1-2)Man(a1-3)[Fuc(a1-2)[Gal(a1-3)]Gal(b1-3)GlcNAc(b1-2)Man(a1-6)]Man(b1-4)GlcNAc(b1-4)[Fuc(a1-6)]GlcNAc
Outline: as §1

[11] = target: Fuc(a1-2)[Gal(a1-3)]Gal(b1-3)GlcNAc(b1-3)GalNAc
Outline: as §1

[12] = target: Fuc(a1-2)[Gal(a1-3)]Gal(b1-3)GlcNAc(b1-6)GalNAc
Outline: as §1

[13] = target: Fuc(a1-2)[Gal(a1-3)]Gal(b1-4)Glc
Outline: as §1

[14] = target: Fuc(a1-2)[Gal(a1-3)]Gal(b1-4)GlcNAc
Outline: as §1

[15] = target: Fuc(a1-2)[Gal(a1-3)]Gal(b1-4)GlcNAc(b1-2)Man
Outline: as §1

[16] = target: Fuc(a1-2)[Gal(a1-3)]Gal(b1-4)GlcNAc(b1-2)Man(a1-3)[Fuc(a1-2)[Gal(a1-3)]Gal(b1-4)GlcNAc(b1-2)Man(a1-6)]Man(b1-4)GlcNAc(b1-4)GlcNAc
Outline: as §1

[17] = target: Fuc(a1-2)[Gal(a1-3)]Gal(b1-4)GlcNAc(b1-2)Man(a1-3)[Fuc(a1-2)[Gal(a1-3)]Gal(b1-4)GlcNAc(b1-2)Man(a1-6)]Man(b1-4)GlcNAc(b1-4)[Fuc(a1-6)]GlcNAc
Outline: as §1

[18] = target: Fuc(a1-2)[Gal(a1-3)]Gal(b1-4)GlcNAc(b1-3)GalNAc
Outline: as §1

[19] = target: Fuc(a1-2)[Gal(a1-3)]Gal(b1-4)GlcNAc(b1-3)[Fuc(a1-2)[Gal(a1-3)]Gal(b1-4)GlcNAc(b1-6)]GalNAc
Outline: as §1

[20] = target: Fuc(a1-2)[Gal(a1-3)]Gal(b1-4)GlcNAc(b1-6)GalNAc
Outline: as §1

[21] = target: Fuc(a1-2)[Gal(a1-3)]Gal(b1-4)[Fuc(a1-3)]Glc
Outline: as §1

[22] = target: Fuc(a1-2)[Gal(a1-3)]Gal(b1-4)[Fuc(a1-3)]GlcNAc
Outline: as §1

[23] = target: Fuc(a1-2)[Gal(a1-3)]Gal(b1-4)[Fuc(a1-3)]GlcNAc(b1-3)GalNAc
Outline: as §1

[24] = target: Fuc(a1-2)[Gal(a1-4)]Gal(b1-4)GlcNAc
Outline: as §1

[25] = target: Fuc(a1-2)[GalNAc(a1-3)]Gal
Outline: as §1

[26] = target: Fuc(a1-2)[GalNAc(a1-3)]Gal(b1-3)GalNAc(a1-3)[Fuc(a1-2)]Gal(b1-4)GlcNAc
Outline: as §1

[27] = target: Fuc(a1-2)[GalNAc(a1-3)]Gal(b1-3)GalNAc(b1-3)Gal(a1-4)Gal(b1-4)Glc
Outline: as §1

[28] = target: Fuc(a1-2)[GalNAc(a1-3)]Gal(b1-3)GlcNAc
Outline: as §1

[29] = target: Fuc(a1-2)[GalNAc(a1-3)]Gal(b1-3)GlcNAc(b1-2)Man(a1-3)[Fuc(a1-2)[GalNAc(a1-3)]Gal(b1-3)GlcNAc(b1-2)Man(a1-6)]Man(b1-4)GlcNAc(b1-4)GlcNAc
Outline: as §1

[30] = target: Fuc(a1-2)[GalNAc(a1-3)]Gal(b1-3)GlcNAc(b1-2)Man(a1-3)[Fuc(a1-2)[GalNAc(a1-3)]Gal(b1-3)GlcNAc(b1-2)Man(a1-6)]Man(b1-4)GlcNAc(b1-4)[Fuc(a1-6)]GlcNAc
Outline: as §1

[31] = target: Fuc(a1-2)[GalNAc(a1-3)]Gal(b1-3)GlcNAc(b1-3)GalNAc
Outline: as §1

[32] = target: Fuc(a1-2)[GalNAc(a1-3)]Gal(b1-3)GlcNAc(b1-6)GalNAc
Outline: as §1

[33] = target: Fuc(a1-2)[GalNAc(a1-3)]Gal(b1-4)Glc
Outline: as §1

[34] = target: Fuc(a1-2)[GalNAc(a1-3)]Gal(b1-4)GlcNAc
Outline: as §1

[35] = target: Fuc(a1-2)[GalNAc(a1-3)]Gal(b1-4)GlcNAc(b1-2)Man
Outline: as §1

[36] = target: Fuc(a1-2)[GalNAc(a1-3)]Gal(b1-4)GlcNAc(b1-2)Man(a1-3)[Fuc(a1-2)[GalNAc(a1-3)]Gal(b1-4)GlcNAc(b1-2)Man(a1-6)]Man(b1-4)GlcNAc(b1-4)GlcNAc
Outline: as §1

[37] = target: Fuc(a1-2)[GalNAc(a1-3)]Gal(b1-4)GlcNAc(b1-2)Man(a1-3)[Fuc(a1-2)[GalNAc(a1-3)]Gal(b1-4)GlcNAc(b1-2)Man(a1-6)]Man(b1-4)GlcNAc(b1-4)[Fuc(a1-6)]GlcNAc
Outline: as §1

[38] = target: Fuc(a1-2)[GalNAc(a1-3)]Gal(b1-4)GlcNAc(b1-3)Gal(b1-4)GlcNAc
Outline: as §1

[39] = target: Fuc(a1-2)[GalNAc(a1-3)]Gal(b1-4)GlcNAc(b1-3)Gal(b1-4)GlcNAc(b1-3)Gal(b1-4)GlcNAc
Outline: as §1

[40] = target: Fuc(a1-2)[GalNAc(a1-3)]Gal(b1-4)GlcNAc(b1-3)GalNAc
Outline: as §1

[41] = target: Fuc(a1-2)[GalNAc(a1-3)]Gal(b1-4)GlcNAc(b1-3)[Fuc(a1-2)[GalNAc(a1-3)]Gal(b1-4)GlcNAc(b1-6)]GalNAc
Outline: as §1

[42] = target: Fuc(a1-2)[GalNAc(a1-3)]Gal(b1-4)GlcNAc(b1-6)GalNAc
Outline: as §1

[43] = target: Fuc(a1-2)[GalNAc(a1-3)]Gal(b1-4)[Fuc(a1-3)]GlcNAc
Outline: as §1

[44] = target: Fuc(a1-2)[GalNAc(a1-3)]Gal(b1-4)[Fuc(a1-3)]GlcNAc(b1-3)GalNAc
Outline: as §1

[45] = target: Fuc(a1-2)[GalNAc(a1-4)]Gal(b1-4)GlcNAc
Outline: as §1

B1: VLRB.aGPA.23-GCN4-biotin (Petromyzon marinus) (protein)
chain: ACPSQCSCSGTEVNCAGKSLASVPAGIPTTTRVLYLNSNQITKLEPGVFDRLANLRELHLWGNQLVSLPPGVFDNLANLEKLWLNSNQLTSLPAGLFDRLVNLEHLGLCCMKLTELPSGAFDKLTRLKQLGLDQNQLKSIPDGAFARLPSLTHVWLHTNPWDCQCTDILYLSGWVAQHSSIVGEGWPWRHSPDSAKCSGTNTPVRAVTEASTSPSKCP
- glycan array binding signal (z-score) [1]: -0.079
- glycan array binding signal (z-score) [2]: -0.055
- glycan array binding signal (z-score) [3]: -0.078
- glycan array binding signal (z-score) [4]: -0.079
- glycan array binding signal (z-score) [5]: -0.071
- glycan array binding signal (z-score) [6]: -0.073
- glycan array binding signal (z-score) [7]: -0.085
- glycan array binding signal (z-score) [8]: -0.055
- glycan array binding signal (z-score) [9]: -0.079
- glycan array binding signal (z-score) [10]: -0.07
- glycan array binding signal (z-score) [11]: -0.083
- glycan array binding signal (z-score) [12]: -0.079
- glycan array binding signal (z-score) [13]: -0.058
- glycan array binding signal (z-score) [14]: -0.084
- glycan array binding signal (z-score) [15]: -0.082
- glycan array binding signal (z-score) [16]: -0.073
- glycan array binding signal (z-score) [17]: -0.074
- glycan array binding signal (z-score) [18]: -0.085
- glycan array binding signal (z-score) [19]: -0.069
- glycan array binding signal (z-score) [20]: -0.08
- glycan array binding signal (z-score) [21]: -0.087
- glycan array binding signal (z-score) [22]: -0.073
- glycan array binding signal (z-score) [23]: -0.07
- glycan array binding signal (z-score) [24]: -0.066
- glycan array binding signal (z-score) [25]: -0.078
- glycan array binding signal (z-score) [26]: -0.079
- glycan array binding signal (z-score) [27]: -0.076
- glycan array binding signal (z-score) [28]: -0.074
- glycan array binding signal (z-score) [29]: -0.082
- glycan array binding signal (z-score) [30]: -0.077
- glycan array binding signal (z-score) [31]: -0.064
- glycan array binding signal (z-score) [32]: -0.09
- glycan array binding signal (z-score) [33]: -0.077
- glycan array binding signal (z-score) [34]: -0.078
- glycan array binding signal (z-score) [35]: -0.082
- glycan array binding signal (z-score) [36]: -0.077
- glycan array binding signal (z-score) [37]: -0.073
- glycan array binding signal (z-score) [38]: -0.079
- glycan array binding signal (z-score) [39]: -0.061
- glycan array binding signal (z-score) [40]: -0.078
- glycan array binding signal (z-score) [41]: -0.081
- glycan array binding signal (z-score) [42]: -0.081
- glycan array binding signal (z-score) [43]: -0.06
- glycan array binding signal (z-score) [44]: 0.368
- glycan array binding signal (z-score) [45]: -0.078

Reference: the supplement of paper PMC8728848
